Laboratory results as given in PubChem BioAssay AID504832 (National Center for Advancing Translational Sciences (NCATS), 2011).
The campaign covered roughly 310,000 compounds. About 18,000 (5.8%) were called active. The inconclusive results got no clear call from the source; some entries with a clear call stand among them for comparison. The call rests on the fitted dose curve; in most records, active means well fitted inhibition curve with a large enough effect; inconclusive means small, poorly fitted or top-dose-only effect, or another doubt; inactive means no such curve, though single readings can be large or run the other way. Potencies of inconclusive entries are left out as doubtful fits.

Assay: Primary qHTS for delayed death inhibitors of the malarial parasite plastid, 48 hour incubation
Settings: P. falciparum luciferase growth in erythrocytes; series mostly up to 28.7 µM; activity change, negative = inhibition: at the top concentration
In short: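 Firefly luciferase activity from engineered P. falciparum reports growth; inhibitors lower the luminescent signal. Cultures contained 2% hematocrit erythrocytes at 0.1% final parasitemia.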
On the % scale 0 is the no-effect control and ±100 the full control effect; potency means the concentration at half of the fitted maximal effect; tags describe the fitted curve by direction and shape.

**Q.** For `CCNC(=S)N(Cc1ccc(OC)cc1)C1CC(=O)N(c2ccc(OCC)cc2)C1=O` (stereo not drawn), which Potency is on record?
**A.** The Potency was inconclusive [inhibitor, single point].

**Q.** Which Potency does the source give for `Nc1nc(-c2ccccn2)nc(N)c1Cc1ccc(Cl)cc1Cl` here?
**A.** The Potency was active: 1.85 µM.

**Q.** For `COc1cc(C(=O)N/N=C(\Cc2ncc[nH]2)c2ccccc2)cc(OC)c1OC`, which Potency is on record?
**A.** Its Potency is inconclusive [inhibitor, partial curve].

**Q.** For `CCCCC1=CC2=C(c3ccco3)C(=O)C(C)(OC(=O)c3ccc(OC)cc3)C(=O)C2=CN1CCCCO` (stereo not drawn), which Potency is on record?
**A.** The Potency was inconclusive [inhibitor, single point].

**Q.** With `O=C(NC(=S)NCc1ccccc1)C1CCCCC1` as the compound, how does the Potency read?
**A.** The Potency was inconclusive [inhibitor, full curve, poor fit].

**Q.** Which “activity change, negative = inhibition” value does the source give for `Cc1cc(C(=O)Oc2cccnc2)ccc1[N+](=O)[O-]` here?
**A.** The value was inactive: 5.24%.

**Q.** Which Potency does the source give for `NS(=O)(=O)c1ccc(NC(=O)COc2ccc(C(=O)c3ccc(F)cc3)cc2)cc1` here?
**A.** Its Potency is inconclusive [inhibitor, partial curve, poor fit].

**Q.** For `Cc1cccc(N(CC(=O)NCc2ccc3c(c2)OCO3)C(=O)CCC(=O)Nc2ccccn2)c1`, which Potency is on record?
**A.** Its Potency is active: 13.1 µM.

**Q.** Which Potency does the source give for `CCC(C)(C(=O)NC1CCCC1)N(Cc1cccs1)C(=O)Cc1cccs1` (stereo not drawn) here?
**A.** The Potency was inconclusive [inhibitor, partial curve].

**Q.** With `O=C(c1ccc2c3n(nc2c1)-c1ccc(Cl)cc1CO3)N1CCCCC1` as the compound, how does the “activity change, negative = inhibition” value read?
**A.** The value was inactive: 266%.

**Q.** Which “activity change, negative = inhibition” value does the source give for `CCn1c(-c2ccc(S(=O)(=O)N3CCOCC3)cc2)csc1=Nc1ccc(C)c(Cl)c1` here?
**A.** The value was inactive: 3.62%.

**Q.** For `CCOc1cccc(=O)c2c(C)n(Cc3ccco3)c(C)c12`, which Potency is on record?
**A.** The Potency was active: 9.28 µM.

**Q.** With `CCN(CC)CCN(C(=O)c1ccc2c(c1)OCCO2)c1nc2cc(C)cc(C)c2s1` as the compound, how does the Potency read?
**A.** The Potency was inconclusive [inhibitor, single point].

**Q.** Which Potency does the source give for `CN(C)C1(CNC(=O)c2cccc(S(=O)(=O)NCc3ccccc3)c2)CCCCC1` here?
**A.** The Potency was inconclusive [inhibitor, single point].

**Q.** Which Potency does the source give for `Cc1ccc(NC(=O)CSCC(=O)Nc2ccccc2N2CCCCC2)cc1` here?
**A.** Its Potency is inconclusive [inhibitor, partial curve, poor fit].

**Q.** With `CC(C(=O)O/N=C(\N)c1cccnc1)c1ccc([N+](=O)[O-])cc1` (stereo not drawn) as the compound, how does the Potency read?
**A.** Its Potency is inconclusive [inhibitor, full curve, poor fit].

**Q.** Which Potency does the source give for `NC(=O)C1=C[C@H](c2csc3ccccc23)C[C@H](OCc2ccc(CO)cc2)O1` here?
**A.** The Potency was inconclusive [inhibitor, full curve, poor fit].

**Q.** For `Nc1nc(N)c(C=Nc2ccc(Br)cc2)c(Nc2ccc(Br)cc2)n1`, which Potency is on record?
**A.** Its Potency is active: 0.586 µM.
